{"source": "paper PMC12040169", "about": "(PLOS Biology, 2025)", "note": "Some of the results follow.", "data": [{"tested_on": "T1, C. trachomatis L2/434/Bu expressing GFP (CTL2-GFP)", "T1 construct": "L2/434/Bu GFP intracellular growth in HeLa cells", "parameters": "species or system HeLa; C. trachomatis total inclusion area by high-content imaging, normalised to DMSO", "details": "total inclusion area; 28.5 h, 10 µM; inhibitor", "procedure,_shortened": "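Bulk GFP and resorufin signals were read first. Wells were then fixed, stained with Hoechst and imaged to detect GFP inclusions and host nuclei. MICs followed the previously described calculation.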", "values": [{"molecule": "CC1Oc2ccc(NC(=O)C3CC4C=CC3C43CC3)cc2NC1=O", "note": "(stereo not drawn) [CBK281523]", "% of control remaining": 84.9967}, {"molecule": "Cc1ccc(S(=O)(=O)N2CCOCC2)cc1-c1cncc(-c2ccc(O)cc2)n1", "note": "[CBK123789]", "% of control remaining": 68.6916}, {"molecule": "COc1ccc(/C(C)=N/NC(=N)SC2CC(=O)N(c3ccc(C(=O)O)cc3)C2=O)cc1F", "note": "(stereo not drawn) [CBK262805]", "% of control remaining": 95.8808}, {"molecule": "FC(F)(F)c1ccnc(SCCOc2ccccc2)n1", "note": "[CBK103721]", "% of control remaining": 56.7509}, {"molecule": "Cc1ccc(C)c(C(=O)CCC(=O)Nc2cccnc2)c1", "note": "[CBK266902]", "% of control remaining": 99.2436}, {"molecule": "CCn1cnc2cc(NC(=O)c3ccc(C)n(C)c3=O)ccc21", "note": "[CBK281402]", "% of control remaining": 88.5277}, {"molecule": "Cc1cc2cc3n(c2nn1)N=C(Cl)CC3", "note": "[CBK019458]", "% of control remaining": 46.5215}, {"molecule": "CC(=O)N1CCc2c(sc(NC(=O)c3ccccc3C)c2C#N)C1", "note": "[CBK304681]", "% of control remaining": 20.5788}, {"molecule": "Brc1cnn(-c2ccccc2)c1", "note": "[CBK027172]", "% of control remaining": 39.3105}, {"molecule": "O=C(CCCc1ccccc1)Nc1c(F)cc(F)cc1OC1CCNCC1", "note": "[CBK050222T]", "% of control remaining": 88.1002}, {"molecule": "c1cncc(CN2CCC(Oc3cncc(OCC4COc5ccccc5O4)n3)C2)c1", "note": "(stereo not drawn) [CBK084365]", "% of control remaining": 90.924}, {"molecule": "CC(C)n1cnnc1CN1CCN(c2ccc(C#N)cc2)CC1", "note": "[CBK307714]", "% of control remaining": 89.4074}, {"molecule": "CCOc1ccccc1NC(C)CC(=O)O", "note": "(stereo not drawn) [CBK058826]", "% of control remaining": 107.121}, {"molecule": "COC(=O)c1cn([C@H]2CO[C@H]3[C@@H]2OC[C@H]3O)nn1", "note": "[CBK289491]", "% of control remaining": 100.371}, {"molecule": "O=C(Cc1c[nH]c2ccccc12)N1CCC2(CCCN(C(=O)c3cccnc3)C2)C1", "note": "(stereo not drawn) [CBK131604]", "% of control remaining": 96.0278}, {"molecule": "Nc1ncnc2c1nc1n2[C@H]2C[C@@H](O)[C@H](O2)C1=O", "note": "[CBK201259]", "% of control remaining": 134.922}, {"molecule": "CCCc1ccc(S(=O)(=O)Nc2nc(C)c(C(=O)O)s2)cc1", "note": "[CBK045555]", "% of control remaining": 92.6134}, {"molecule": "CN(CP(=O)(O)CCc1ccccc1)S(C)(=O)=O", "note": "[CBK263068]", "% of control remaining": 90.3117}, {"molecule": "CS(=O)(=O)N(CC(=O)Nc1ccc(S(=O)(=O)N2CCCC2)cc1)c1ccc2c(c1)OCO2", "note": "[CBK268995]", "% of control remaining": 105.987}, {"molecule": "O=C(CNS(=O)(=O)c1ccc(Oc2ccccc2)cc1)Nc1ccc(F)cc1", "note": "[CBK042229]", "% of control remaining": 59.9315}, {"molecule": "O=C(c1cnc2cc(C(F)(F)F)ccc2c1O)N1CCN(c2ccccn2)CC1", "note": "[CBK107431]", "% of control remaining": 69.1006}, {"molecule": "COc1ccc(C(=O)N2CCC3(CCN(Cc4ccc(Cl)c(Cl)c4)C3)C2)cc1OC", "note": "(stereo not drawn) [CBK132150]", "% of control remaining": 86.356}, {"molecule": "O=C(C1CCN(S(=O)(=O)c2ccc3ccccc3c2)CC1)N1CCC(Cc2ccccc2)CC1", "note": "[CBK269558]", "% of control remaining": 77.2025}, {"molecule": "O=C(CN1C(=O)c2ccccc2S1(=O)=O)N(Cc1ccccc1)Cc1ccccc1", "note": "[CBK265982]", "% of control remaining": 62.9026}, {"molecule": "O=C(Nc1cccc(-c2nc3ccccc3s2)c1)c1ccc(Cn2cnnn2)cc1", "note": "[CBK285823]", "% of control remaining": 119.829}, {"molecule": "COc1ccnc(N2CCN(C(=O)c3cc(C)nn3C)CC2)n1", "note": "[CBK305967]", "% of control remaining": 43.7895}, {"molecule": "CN(C1CCCCC1)S(=O)(=O)NCCc1cn2ccccc2n1", "note": "[CBK305576]", "% of control remaining": 96.0579}, {"molecule": "O=S(=O)(Nc1nc(-c2ccccc2Cl)cs1)c1sc(Cl)cc1Br", "note": "[CBK200028]", "% of control remaining": 86.0347}, {"molecule": "CC(C)Cn1c(=O)[nH]c2ncc(-c3ccc(O)cc3)nc21", "note": "[CBK065011]", "% of control remaining": 73.1982}, {"molecule": "O=C(O)C1CCCN(C(=O)Cc2csc(COc3ccc(Cl)cc3)n2)C1", "note": "(stereo not drawn) [CBK304501]", "% of control remaining": 66.9356}, {"molecule": "CNCC(=O)N1CCN(C(=O)c2ccc(Cl)cc2Cl)CC1", "note": "[CBK029576]", "% of control remaining": 3.225}, {"molecule": "O=C(CCc1c[nH]c2ccccc12)Nc1ccccc1C(=O)O", "note": "[CBK287242]", "% of control remaining": 111.021}, {"molecule": "Cc1cc(NC(=O)C2CCN(C(=O)c3c(F)cccc3F)CC2)no1", "note": "[CBK304359]", "% of control remaining": 67.529}, {"molecule": "COc1ccc(CCNc2ncnc3[nH]cnc23)cc1OC", "note": "[CBK134342]", "% of control remaining": 103.676}, {"molecule": "CCOC(=O)c1cccc(-n2ncc(CN(C)C)n2)c1", "note": "[CBK112866]", "% of control remaining": 84.632}, {"molecule": "O=C(O)[C@H]1Nc2ccc(Br)cc2[C@H]2[C@H](O)[C@H](O)C[C@H]21", "note": "[CBK303242]", "% of control remaining": 77.9851}, {"molecule": "CC(C)OC(=O)[C@@H]1CCN(C(=O)CCC2NC(=O)NC2=O)[C@@H]1c1ccc(F)cc1", "note": "(stereo partly drawn) [CBK285520]", "% of control remaining": 77.5369}, {"molecule": "O=C(O)Cc1ccc(OCC(=O)NCc2ccc(Cl)cc2Cl)cc1", "note": "[CBK296628]", "% of control remaining": 97.2639}, {"molecule": "Cn1nccc1NS(=O)(=O)c1ccc(-c2cnco2)s1", "note": "[CBK062088]", "% of control remaining": 59.3155}, {"molecule": "COc1ccc2cc([C@@H](O)C[C@@H](C)O)c(Cl)nc2c1", "note": "[CBK022146]", "% of control remaining": 95.0045}, {"molecule": "Cc1csc(C(Cc2ccsc2)NCc2cccnc2)n1", "note": "(stereo not drawn) [CBK285020]", "% of control remaining": 104.562}, {"molecule": "CN1C(=O)c2ccccc2OCCCCC[C@H]2[C@@H]1CCCN2C(=O)c1ccccc1Cn1cncn1", "note": "[CBK292114]", "% of control remaining": 86.8073}, {"molecule": "CCC1(CC)CCN(C(=O)CCn2ccc3ccncc32)C1", "note": "[CBK285176]", "% of control remaining": 86.9103}, {"molecule": "COCc1cccc(-c2ncc(OCCN3CCCC3=O)nc2NC(C)=O)c1", "note": "[CBK145239]", "% of control remaining": 102.301}, {"molecule": "Cn1ccnc1C1(O)CC2CCC(C1)N2C(=O)c1c(F)cccc1F", "note": "(stereo not drawn) [CBK284092]", "% of control remaining": 86.2164}, {"molecule": "O=C(Nc1cccc(Cl)c1)c1cccc(NC(=O)c2ccccc2C(=O)O)c1", "note": "[CBK287122]", "% of control remaining": 109.7}, {"molecule": "Cc1oc2ncn(Cc3ccccc3)c(=N)c2c1C", "note": "[CBK288160]", "% of control remaining": 105.732}, {"molecule": "O=C(Nc1ccc(F)cc1)c1ccc(NS(=O)(=O)c2ccc(Br)cc2)cc1", "note": "[CBK050400]", "% of control remaining": 52.9203}, {"molecule": "COC(=O)C1C=C(NS(=O)(=O)c2ccc(-c3ccnc(SC)n3)s2)C=CC1", "note": "(stereo not drawn) [CBK160388]", "% of control remaining": 90.3001}, {"molecule": "N=c1n(CCN2CCCCC2)c2ccccc2n1CC(O)COc1ccc(Cl)cc1", "note": "(stereo not drawn) [CBK262512C]", "% of control remaining": 89.2613}, {"molecule": "CC(O)CNC(=O)C1(c2ccccc2)CCCC1", "note": "(stereo not drawn) [CBK149542]", "% of control remaining": 126.068}]}]}
